Laboratory results from the supplement of paper PMC12632987.
Whole data set: some 4,500 sequences, median “median log2 fold change of GCK-ALFA target abundance (FLAG IP / Myc IP barcode read proportion)” near 0.078, cut for the lowest 2% near -0.6. Some of the results follow.

B1: GBRAP_83_6987 (protein)
chain: AEKVTVAALGDRIKEAVEIAIDLTKEEGKEVSLEIIADKEDWPEVLEGVRRLAEAGIEAEIDVSVKGATPEEAKEMLEELKKIAKEHGSNFKIEVHVIEE
B2: GBRAP_80_6759 (protein)
chain: SLAELEAALAELEALDPELGARLRAVLERALAAGVSVEVAAETVRALVELYKLDPEKARELAERLIAELEAALAAGDVAAAEAALIDAESDALVEVEELE
B3: GBRAP_160_4503 (protein)
chain: MEKKEKAFKYLDEEAELAIEAAKEVSDEDAVKIVEAFAGEMIVYLKEEYGISDEAEDKAMEKVDEIVERLKSIEELTDEDVEEAIQEIRDYFKELIEKES
B4: GBRAP_160_4063 (protein)
chain: DEEKEELIEDVEEAKKLILEVIDEEGVEAAIIMFDGEFGSIIMEAASDEEASDELVDELAKIRDEGVEELEKNKDASKEEQKKIVEEAAKKAIEAIKKLY
B5: GBRAP_160_4484 (protein)
chain: SEKVEEAKREVRRIVEEMVDAIKEADPETRPAIARAYAGDIAKTAEELGVVNDEEEEEFLKLAEEGGAAIVEASELGPEAMEAAAEELIAKLEEFIREKS
B6: GBRAP_78_6624 (protein)
chain: KLEELLDEAIKLLNEAAKIALKLNTPEADELLGELVDAMSDLEEAEEEGGDLEKLKEALKELEEALKIAKKLGNKELEEKLKKAIEKVEKAIKLVEELKK
B7: GBRAP_160_4695 (protein)
chain: SETAKKLKEFVKEEFEETKKMIEGESIEQRATIVAGTGGRILMELVENEDAPDELEDEVLKIFDETVEYILANPNLTEEELKELIDEAEEKVKEAIDKYL
B8: GBRAP_128_3530 (protein)
chain: SVEEAKKEAEEVVEKIKNSDVEEARKITEEFLEKLKSWTDEEVEAAAEVLEELAPKLTAEKLEAVADTIRERRDEFTPEKQEILADLEVELLNLALEKEE
B9: GBRAP_139_3703 (protein)
chain: MSLEEKIEKAKELAKEIKENEEESLEKLVELINSLSEEEAEKAVKAIAEVLAELPLDEFERIADKLLELAKEKIEDEDKVDIIEGVLNGALARKAYAEEL
B10: GBRAP_125_3124 (protein)
chain: AEAQALADLAAVLKALGFDDEDVAEAVELAAAHSIRGTLYAALLALGDEEGADLVAKLTEEQTKEVVAAVNAWLKAHPDATPEEVKEKLLALLKEAVAAS
B11: GBRAP_125_3029 (protein)
chain: SMEELAEDLGLIAKRLGFSEGDVEELRENALKHGIKGTLIALALAEGNEELAELLEKLSEEEVAEVVRKAAKEILENPDLTPEEVKELLLKLAKEAVEKS
B12: GBRAP_52_5844 (protein)
chain: SEEEAREIAKELVELAKEGKEEELKKKIKEIVETLSEEEIMEVLEELAKLAATADPETAEVIWEVAELLAEEALKAGFDELEVSLGLALVGAAVYKAQQR
B13: GBRAP_125_3121 (protein)
chain: SMEELLEDLRIVLRALGLDEEDIEEALELARKYGLKGTMIAVAMALGWEEIADLVEKLTEEQVAEAVREVAAYIRANPDLTPEEVKAKLKEVLQEKLAAQ
B14: GBRAP_83_6873 (protein)
chain: MEKIVVATTGDHIDSAVDAAIDLHKEEGYDVELEIIATPEDREKVLAAAKRLAEAKVEMEITVILEGATPEEAEELKKEIEEIFKKAGVNNKVEVILVEP
B15: GBRAP_52_6368 (protein)
chain: MLEEALEKLREALKAVLEGKREEARKILEEIVENYSEEVILEAARRLAEELLEGTVEEAEAFLELALMLADILDEKGRSEAVGDEIEAIAARTYQTILEK
B16: GBRAP_26_5462 (protein)
chain: MDEAFKAAVDAVDAITAKLPDPTAAAGVRTVAYTEIEELEEDIEAGKDIAEAVAAARDAVLAESREILEEAGLDDATIDAVLAALDAVFDALEKDLKAAA
B17: GBRAP_128_3601 (protein)
chain: AAEEAAKYAREKMEKIKNSNLEEAKKIAEELAEWLLTLSLEEVKAAVEEIKKLAKELSEEKLLILQDALHEAAKKASPEKAEALLDALGELGEEAYEKEE
B18: GBRAP_52_5842 (protein)
chain: MEEEARRLAEELVALAEAGREEELDALIEEIVETLSEEEVMLVLEELARLAAEADPETAEVIFDVADRLADAALAAGFDEMEMSLGLALVGAAVYKALQR
B19: GBRAP_137_3674 (protein)
chain: MIDAEIEIEDGLAYAKLTYKGSLEEAKKAAEIAEEIAAKIPGLAVSTKVEEDGTLTIDVGGTLEQVMKFLKELAKALNVTINVTIKNEDTGETTEETIKA

Target: GABARAP, O95166
Test: median log2 fold change of GCK-ALFA target abundance (FLAG IP / Myc IP barcode read proportion) (log2 ratio); each designed protein is fused to an ALFA-tag nanobody in HEK293 cells to bring the named protein to FLAG-tagged glucokinase (GCK); Myc marks an untargeted standard; higher = target protein stabilised (more abundant)
Details: target protein: 3xFLAG-MCP-GCK-ALFA reporter; HEK293 landing pad (RPLP)
Method in brief: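 Sequencing of reverse-transcribed, amplified circular RNA barcodes from anti-FLAG and anti-Myc immunoprecipitates provided the readout for an ALFA-nanobody-fused binder library recombined into HEK293 landing-pad cells. Those cells were induced with 2 μg mL^−1 doxycycline, transfected with a plasmid expressing a FLAG-tagged target and a Myc-tagged standard, and lysed after 48 h. Target abundance is the per-binder median log2 ratio of FLAG to Myc barcode read proportions. Only barcodes at a proportion of ≥10^−7 in both replicates and binders with ≥3 barcodes per replicate were kept, with a 10^−6 pseudocount added before the two replicates were pooled.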

GABARAP, O95166, sequence (O95166 whole entry, the tested form may be a part): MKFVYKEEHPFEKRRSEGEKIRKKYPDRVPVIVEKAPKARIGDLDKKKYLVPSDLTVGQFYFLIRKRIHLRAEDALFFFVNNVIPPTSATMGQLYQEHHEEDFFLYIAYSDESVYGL

| Binder | median log2 fold change |
| --- | --- |
| B1 | 0.146 |
| B2 | 0.0898 |
| B3 | 0.161 |
| B4 | 0.146 |
| B5 | 0.417 |
| B6 | 0.0665 |
| B7 | -0.283 |
| B8 | -0.0321 |
| B9 | 0.211 |
| B10 | -0.452 |
| B11 | 0.277 |
| B12 | -0.217 |
| B13 | -0.154 |
| B14 | 0.372 |
| B15 | 0.0369 |
| B16 | 0.113 |
| B17 | 0.196 |
| B18 | -0.837 |
| B19 | 0.252 |
